Data: PubChem BioAssay AID1963970 (Molecular Pharmacology Branch, DTP, NCI, 2024)
Some entries of the source have several records that differ or are many. The list is limited to them. An entry can have further records. Values given together are repeated measurements across runs, samples, wells, individuals or studies.

Tested on: 931267-113-T-J1-PDC multicell spheroid viability
Assay: Anticancer human tumor 931267-113-T-J1-PDC patient-derived colon adenocarcinoma cell line growth inhibition [PI3K]
Conditions: for IC50: compound alone; for viability, T/C: stronger effect = lower value
Text: Combinatorial screen of targeted agents with the PI3K inhibitors inavolisib, alpelisib, duvelisib, and copanlisib in multi-cell type tumor spheroids
A high-throughput screen of multi-cell type tumor spheroids was designed to identify active combinations of targeted small molecules and PI3K pathway inhibitors. Complex spheroids include a stromal component modeled by human endothelial cells (HUVEC) and fibroblasts modeled by human mesenchymal stem cells (MSCs). The concentration ranges selected for each drug and investigational agent were based upon clinically achievable concentrations if the clinical Cmax of the agent was known.
Compounds. The drugs and investigational agents: inavolisib (NSC800729), alpelisib (NSC765974), duvelisib (NSC772469), copanlisib (NSC816437), ipatasertib (NSC767898), afuresertib (NSC778305), talazoparib (NSC767125), sapanisertib (NSC764658), selumetinib (NSC741078), tovorafenib (DAY101, NSC766906), vemurafenib (NSC761431), ravoxertinib (NSC781343), sotorasib (NSC818433), MRTX1133 (NSC 836407), abemaciclib (NSC 768073), palbociclib (NSC758247), venetoclax (NSC 766270), SY5609 (NSC837396), enzalutamide (NSC755605), and darolutamide (NSC825331), were obtained from the National Cancer Institute (NCI) Developmental Therapeutics Program Chemical Repository. The FDA-approved anticancer drug set is available from the NCI Developmental Therapeutics Program. […] The stock solutions were prepared in dimethyl sulfoxide (DMSO, Sigma-Aldrich, St. Louis, MO, cat. D2650) at 800-fold the tested concentration and stored at -70 degrees C prior to their use. All drugs and investigational agents were tested over a range starting from a high concentration at or near the clinical Cmax and decreasing in half-log increments. If the clinical Cmax for an agent had not been determined, the highest concentration tested was 10 microM.
Cell Culture. All cells were maintained in an incubator at 37 degrees C and 5% CO2 with 95% humidity. The PDC lines were cultured according to standard operating procedures established by the NCI PDMR (https://pdmr.cancer.gov/sops/default.htm). All PDCs were thawed and cultured in Matrigel-coated flasks prepared with a working solution of 1X Ham's F-12 nutrient mix, without supplementation (Invitrogen, Waltham, MA, cat. 11765054), 100 U/mL penicillin-streptomycin (Invitrogen, cat. 15140122), and 2.5% Matrigel (Corning Inc., Corning, NY, cat. 354248) for the first three passages. The 354836-022-R-J1-PDC, 475296-252-R-J1-PDC, and 997726-040-R-J2-PDC lines were cultured in 6A media, which includes advanced DMEM/F-12 (Thermo Fisher Scientific, cat. 12634028), 10 mM HEPES (Thermo Fisher Scientific, cat. 15630080), 1X GlutaMAX supplement (Thermo Fisher Scientific, cat. 35050061), 0.1 mg/mL primocin (InvivoGen, San Diego, CA, cat. ant-pm-2), 10% defined fetal bovine serum, heat inactivated (HyClone Laboratories Inc., Logan, UT, cat. SH30070.03HI), 50% L-WRN conditioned media (ATCC, cat. CRL-3276), 1.25 mM N-Acetyl-L-cysteine (Sigma-Aldrich, cat. A9165), 10 mM nicotinamide (Sigma-Aldrich, cat. N0636), 1X B-27 supplement (Thermo Fisher Scientific, cat. 17504044), 1X N-2 supplement (Thermo Fisher Scientific, cat. 17502048), and 10 microM Y-27632 dihydrochloride (Tocris Bioscience, Bristol, United Kingdom, cat. 1254). The 624824-186-R-J2-PDC line was cultured in 6C/Colon 1B media, which includes all 6A media components plus 50 ng/mL human EGF recombinant protein (Thermo Fisher Scientific, cat. PHG0311). […]
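Also: viability read 7 days after compound addition.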

IC50 | Structure (SMILES) | viability, T/C (compound alone 3.16 µM) | other results
6.02 µM, 5.9 µM, > 10 µM, 5.97 µM | Cn1nccc1Nc1nccc(-c2ccn(C(CO)c3ccc(Cl)c(F)c3)c(=O)c2)n1 (stereo unspecified) | – | –
6.11 µM, 6.16 µM, 6.96 µM, > 10 µM | CC1(C)CCC(CN2CCN(c3ccc(C(=O)NS(=O)(=O)c4ccc(NCC5CCOCC5)c([N+](=O)[O-])c4)c(Oc4cnc5[nH]ccc5c4)c3)CC2)=C(c2ccc(Cl)cc2)C1 | – | viability, T/C (compound alone 10 µM): 14.7, 18.1, 25.4, 78.2%
– | C=CC(=O)N1CCN(c2nc(=O)n(-c3c(C)ccnc3C(C)C)c3nc(-c4c(O)cccc4F)c(F)cc23)C(C)C1 (stereo unspecified) | – | viability, T/C (compound alone 0.1 µM): 83.6, 100, 111, 97.7%
– | CC1(C)CCC(Nc2ncc(C(F)(F)F)c(-c3c[nH]c4c(P(C)(C)=O)c(C#N)ccc34)n2)CN1 (stereo unspecified) | 75.1, 72.3, 97.5, 83.6% | –
– | CCCS(=O)(=O)Nc1ccc(F)c(C(=O)c2c[nH]c3ncc(-c4ccc(Cl)cc4)cc23)c1F | 106, 133, 121, 131% | –
